We go through 52 molecules from PubChem BioAssay AID1347073 (National Center for Advancing Translational Sciences (NCATS), 2019).

In all, about 45,000 compounds went through this assay and about 200 (0.44%) were called active. Another 7% or so got no clear call; they are omitted. Calls follow the shape of the dose curve; as a rule, active = well fitted activation curve with a large enough effect; inconclusive = small, poorly fitted or top-dose-only effect; inactive = no such curve, though single readings can be large or run the other way. This is one part of the list.

The assay in a line: qHTS of TDP-43 Inhibitors: NCGC Sytravon Library Screen. Also: 0% is about no effect; nearly all actives have a fitted effect of over 55% in size. The following applies: yeast TDP-43 toxicity rescue, BacTiter-Glo growth, 24 h; series mostly up to 46.1 µM; growth rescue (activation): at the top concentration. In outline: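 TDP-43-expressing yeast, pregrown in raffinose, seeded at OD600 0.02 in galactose medium with compound for 24 hr at 30 deg C. Growth read by BacTiter-Glo luminescence, so rescue of toxicity appears as activation.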
On the technique in general: qHTS replaces the single test concentration by a dilution series.
Turning to `COC(=O)C1c2ccccc2-c2ccccc21`, the “growth rescue (activation)” value was inactive: 13.7%.

`CN(C)S(=O)(=O)c1cccc(NC(=S)NCCc2ccccn2)c1`: the “growth rescue (activation)” value is inactive: 3.27%.

With `COc1ccc(OC2(C)CCN(Cc3ccc(-c4ccccc4)o3)C2)cc1` (configuration not stated), the “growth rescue (activation)” value was inactive: 6.18%.

For the molecule `O=C(CSc1nnc2c(n1)[nH]c1ccc(F)cc12)NC1CC1`, the “growth rescue (activation)” value was inactive: -7.24%.

Consider `O=C(CNC(=O)c1ccco1)NCC(=O)OCc1ccccc1Br`, for which the “growth rescue (activation)” value is inactive: 11%.

In the case of `CC1(C(=O)NS(=O)(=O)C2CC2)CCCN(C(=O)c2ccc(F)cc2Cl)C1` (configuration not stated), the “growth rescue (activation)” value is inactive: -3.64%.

As to `CCOc1ccccc1N(C)C(=O)c1sc2ncn(CC(=O)N3CCCCC3C)c(=O)c2c1C` (configuration not stated), the “growth rescue (activation)” value is inactive: 6.69%.

Turning to `COCCN(C(=O)/C=C/c1cccc([N+](=O)[O-])c1)c1c(N)n(Cc2ccccc2)c(=O)[nH]c1=O`, the “growth rescue (activation)” value was inactive: -6.44%.

Turning to `O=C(NC(=S)Nc1ccccn1)c1ccco1`, the “growth rescue (activation)” value was inactive: 15%.

For the molecule `O=C(O)CCCC(=O)Nc1ccc(OCc2nc3ccccc3s2)cc1`, the “growth rescue (activation)” value is inactive: 11.9%.

As for `COc1ccc(Cn2c(CCC(=O)NCCC(C)C)nc3ncccc3c2=O)cc1`, the “growth rescue (activation)” value is inactive: -2.61%.

`O=C(NNS(=O)(=O)c1ccccc1F)c1cc(-c2ccccc2)n[nH]1`: the “growth rescue (activation)” value was inactive: -11.4%.

For `CN(CC(=O)NC1CC(C)(C)NC(C)(C)C1)S(=O)(=O)c1cc(Cl)ccc1Cl`, the “growth rescue (activation)” value is inactive: 6.85%.

`COc1cc(NS(=O)(=O)c2ccc(NC(=O)C34CC5CC(CC(C5)C3)C4)cc2)ncn1`: the “growth rescue (activation)” value is inactive: -28.5%.

For the molecule `COc1ccccc1CCc1nnc(CCC(=O)N(C)Cc2cccc3cnccc23)o1`, the “growth rescue (activation)” value is inactive: 1.09%.

As to `C#CC[N+](C)(C)CCCCCCCCCCCC`, the “growth rescue (activation)” value is inactive: -53%.

Consider `CN1CCN(CCCCOc2ccccc2C=O)CC1`, for which the “growth rescue (activation)” value was inactive: 15.4%.

As for `C=CCN1C(=O)C(CC(=O)Nc2ccc(OCC)cc2)N(Cc2ccccn2)C1=S` (configuration not stated), the “growth rescue (activation)” value was inactive: -3.54%.

Take `CCc1ccc(/C=C2/C(=O)N(c3ccccc3)C(=S)N2CC(=O)OC)s1`: the “growth rescue (activation)” value is inactive: 7.85%.

Take `CCN(CC)C(=O)c1cccc(-c2csc(C(O)c3ccco3)n2)c1` (configuration not stated): the “growth rescue (activation)” value is inactive: 14.4%.

`O=C(Nc1cccc(S(=O)(=O)N2CCOCC2)c1)C1CCCCN1S(=O)(=O)c1ccccc1` (configuration not stated): the “growth rescue (activation)” value was inactive: -7.59%.

Take `O=C(c1cc(S(=O)(=O)N2CCCCC2)ccc1N1CCOCC1)N1CCN(Cc2ccccc2)CC1`: the “growth rescue (activation)” value was inactive: 2.64%.

Consider `Cc1cc(N)n(-c2ccc(S(=O)(=O)c3ccc(C(C)C)cc3)cc2)n1`, for which the “growth rescue (activation)” value was inactive: 9.03%.

For the molecule `CCn1c(CNC(=O)c2cccc(C)c2)nnc1SCC(=O)Nc1nnc(C)s1`, the “growth rescue (activation)” value was inactive: 24.3%.

As to `COc1cc(/C=N/Nc2ccc(C(F)(F)F)cn2)cc(OC)c1O`, the “growth rescue (activation)” value was inactive: 26.8%.

With `O=[N+]([O-])c1ccc(Cl)c(NC2=NCCCCC2)c1`, the “growth rescue (activation)” value is inactive: 9.59%.

On to `N#Cc1ccc(/C=C2\CCn3c2nc2cc(C(=O)O)ccc2c3=O)cc1`, for which the “growth rescue (activation)” value is inactive: -4.65%.

As to `O=C(N/N=C/c1ccc2c(c1)OCO2)c1ccc(Br)o1`, the “growth rescue (activation)” value was inactive: 24%.

Turning to `CCc1ccccc1Nc1ncnc2ccccc12`, the “growth rescue (activation)” value was inactive: -13.5%.

In the case of `N#C/C(C(=O)NCc1ccccc1)=C1/N=C(NC(=O)c2cccs2)c2ccccc21`, the “growth rescue (activation)” value was inactive: 15.4%.

For `Cc1cc(C)c(S(=O)(=O)N2CCN(C(=O)c3cc4ccccc4o3)CC2)c(C)c1`, the “growth rescue (activation)” value is inactive: 10.8%.

Regarding `N#Cc1ccc(N2C(=O)[C@@H]3C(C(=O)c4ccc5ccccc5n4)=NN[C@@H]3C2=O)cc1`, the “growth rescue (activation)” value was inactive: 10%.

With `O=C1c2cc(N3CCCC3)c([N+](=O)[O-])cc2C(=O)N1c1ccccc1`, the “growth rescue (activation)” value was inactive: 1.24%.

Take `O=C(Cc1ccc(Cl)cc1)N/N=C/c1ccncc1`: the “growth rescue (activation)” value is inactive: 7.6%.

As for `COc1ccc2c(c1OC)C(=O)N(c1ccccc1)C2=O`, the “growth rescue (activation)” value was inactive: -14.2%.

With `CCOc1ccc(C(=O)NC(=S)Nc2ccc(NC(=O)c3ccco3)cc2)cc1[N+](=O)[O-]`, the “growth rescue (activation)” value is inactive: 10.4%.

For the molecule `Cc1ccccc1OCCCCN1CCCCC1`, the “growth rescue (activation)” value is inactive: -12.7%.

Consider `CC(C)c1ccccc1NC(=O)COC(=O)Cc1c[nH]c2ccccc12`, for which the “growth rescue (activation)” value was inactive: 15.5%.

As to `O=C(CN1C(=O)c2ccccc2C1=O)NCCc1c[nH]c2ccccc12`, the “growth rescue (activation)” value was inactive: 5.23%.

For the molecule `COc1cccc(NC(=O)CSc2nnc(NC(=O)C3CCC3)s2)c1`, the “growth rescue (activation)” value was inactive: -11.3%.

Turning to `O=C(C1CCN(c2nnc(N3CCCC3=O)s2)CC1)N1CCN(Cc2ccc3c(c2)OCO3)CC1`, the “growth rescue (activation)” value is inactive: -4.11%.

Regarding `CC(=O)c1cccc(OCc2cc(C(=O)NCc3nc(C)c(C)s3)no2)c1`, the “growth rescue (activation)” value is inactive: 26.3%.

Take `COc1ccc(-c2nc(N)n[nH]2)cc1`: the “growth rescue (activation)” value was inactive: 4.21%.

Consider `Cc1ccnc(NC(c2ccncc2)c2c(C)[nH]c3ccccc23)c1` (configuration not stated), for which the “growth rescue (activation)” value was inactive: 16.1%.

Turning to `COc1ccc(/C=N/OCC(=O)NC(c2ccccc2)c2ccccc2)cc1OC`, the “growth rescue (activation)” value is inactive: 2.37%.

In the case of `Cc1ccc(C(=O)NC(=S)Nc2nc(-c3cccc([N+](=O)[O-])c3)cs2)c(Cl)c1`, the “growth rescue (activation)” value was inactive: -4.25%.

Turning to `CCn1c(=O)c(-c2nc3ccccc3[nH]2)c(O)c2ccccc21`, the “growth rescue (activation)” value was inactive: 2.49%.

For `Cc1ccc(N2CCN(C(=O)c3cccs3)CC2)c(C)c1`, the “growth rescue (activation)” value was inactive: 12.1%.

Turning to `COc1ccc(N2C(=O)CSCC2=O)cc1OC`, the “growth rescue (activation)” value is inactive: 5.29%.

For the molecule `CC(=O)c1cc(-c2ccccc2)n(CC(=O)Nc2cccc(C)c2)c1C`, the “growth rescue (activation)” value is inactive: 9.76%.

As for `COc1ccc(CCNC(=O)COc2ccc(S(=O)(=O)N3CCCC3)cc2)cc1`, the “growth rescue (activation)” value was inactive: 1.37%.

On to `CSc1ccc(Cl)c(C(=O)OCC(=O)N2CCOCC2)c1`, for which the “growth rescue (activation)” value is inactive: 11.9%.
